Experimental data taken from the RNAGym collection of RNA variant scans (doi:10.1093/nar/gkz1192).
The source gives no read counts; variants with many changes may rest on few reads.

B1: CPEB3 Ribozyme (parent)
chain: UAACAGGGGGCCACAGCAGAAGCGUUCACGUCGCAGCCCCUGUCAGAUUCUGGUGAAUCUGCGAAUUCUGCUGUAUAUCUC

Variants of: B1
Assay: self-cleavage, relative activity (ratio to wild type); higher = more cleavage; in vitro, sequencing
Procedure, shortened: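 Libraries of CPEB3 self-cleaving ribozyme mutants came from rounds of error-prone PCR and carried barcodes, which DNA sequencing matched to variants. In vitro transcription used T7 RNA polymerase at 37°C for 5 hours, with a further 15 min in DNase I before EDTA stopped the reaction; the ribozymes cleaved during both steps. The RNA was reverse transcribed with template switching and sequenced on Illumina. Relative activity is the cleaved/total read fraction of a variant divided by that of the unmutated ribozyme, averaged over three batches with at least 5 reads.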
A18G C32U A64G U72C showed a self-cleavage of 0.25.
Work on A18G U26C U48C A56G U80C yielded a self-cleavage of 0.47.
Variant A18G C29U U60C has a self-cleavage of 0.27.
Variant A18G U26C U49C A56G A65G has a self-cleavage of 0.
A18G A65G U67A A75G U80C gave a self-cleavage of 0.13.
Work on A18G G33A U41A U43C C44U U54C A65U yielded a self-cleavage of 0.1.
For A18G U25C A45U U60A U69C U72A, the self-cleavage was 0.13.
Variant A18G A56G U74A U80C has a self-cleavage of 1.07.
In the case of A18G G19U U69C U72A U78C, the self-cleavage is reported as 0.11.
In the case of A18G U25C C32U U41C U49C A56G, the self-cleavage is reported as 0.06.
In the case of A18G U25C C81A, the self-cleavage is reported as 0.58.
Work on A18G U26C U69A yielded a self-cleavage of 0.19.
A18G C34U U54C gave a self-cleavage of 0.12.
A18G C39A U69C gave a self-cleavage of 0.14.
Work on A18G G30A A56G A77G yielded a self-cleavage of 0.13.
A18G A56U C59A showed a self-cleavage of 0.12.
For A18G C62U U76G, the self-cleavage was 0.35.
A18G U31A U54C U72C showed a self-cleavage of 0.31.
Work on A18G U26C G73C U78C yielded a self-cleavage of 0.64.
Work on A18G C32A U41A yielded a self-cleavage of 0.24.
With A18G C40U U41C the self-cleavage was 0.32.
For A18G U25C A64G U66C, the self-cleavage was 0.37.
A18G U25C U78A showed a self-cleavage of 0.34.
With A18G U25C U60C U72C the self-cleavage was 0.14.
Work on A18G U26C A35U A64G yielded a self-cleavage of 0.11.
A18G G22A U26A U41G gave a self-cleavage of 0.28.
With A18G C29U U69A the self-cleavage was 0.17.
With A18G G30A U54C U67C U69A U72C A75G the self-cleavage was 0.09.
In the case of A18G G22A U25C U67A, the self-cleavage is reported as 0.39.
For A18G U25C C32U U72A, the self-cleavage was 0.16.
A18G C32G A45U A57G U67C showed a self-cleavage of 0.08.
With A18G U26A C29G G33A U51A U60C U72G the self-cleavage was 0.05.
With A18G A56U U78C the self-cleavage was 0.29.
In the case of A18G C37U U54C U78C, the self-cleavage is reported as 0.22.
With A18G U25C U31C U48C U78A the self-cleavage was 0.37.
With A18G U25A U43C A47U U58C the self-cleavage was 0.13.
For A18G U25G A64G, the self-cleavage was 0.32.
A18G C27U A57G U74C A75U gave a self-cleavage of 0.51.
Work on A18G C23U A57G yielded a self-cleavage of 0.1.
A18G G46U U69C U74C showed a self-cleavage of 0.46.
For A18G G55A U67C U80A, the self-cleavage was 0.07.
In the case of A18G G33U A45U U72G U80A, the self-cleavage is reported as 0.39.
For A18G A64U A65G U69C, the self-cleavage was 0.57.
In the case of A18G U25A U54A U74G A75G, the self-cleavage is reported as 0.19.
A18G C71A U78C gave a self-cleavage of 0.16.
A18G A56G U60C U74C gave a self-cleavage of 0.24.
With A18G A57G U72C the self-cleavage was 0.25.
In the case of A18G A57G U72A, the self-cleavage is reported as 0.23.
With A18G U25C A28U the self-cleavage was 0.26.
For A18G U25C A28G A35U A56G, the self-cleavage was 0.06.
In the case of A18G U25C U60C C81G, the self-cleavage is reported as 0.29.
Work on A18G C40U G46U U48C yielded a self-cleavage of 0.04.
A18G U25A U48A A65G A77U U78A showed a self-cleavage of 0.05.
For A18G C37U U43A, the self-cleavage was 0.69.
For A18G U26C C40A U54C, the self-cleavage was 0.18.
In the case of A18G A77G U80A, the self-cleavage is reported as 0.91.
Work on A18G U31A U74G yielded a self-cleavage of 0.62.
A18G A56G A57G A64C U69A gave a self-cleavage of 0.14.
A18G A56G A64G U78C showed a self-cleavage of 0.37.
A18G G33A A57C showed a self-cleavage of 0.12.
Variant A18G G46A U60G U69C has a self-cleavage of 0.12.
A18G C32U C40U U76A gave a self-cleavage of 0.12.
In the case of A18G G46U U69C, the self-cleavage is reported as 0.26.
Variant A18G G22A U41G has a self-cleavage of 0.44.
In the case of A18G U31C A35U A75G, the self-cleavage is reported as 0.05.
A18G U26C C32U C40G G46U U67C U78C showed a self-cleavage of 0.16.
For A18G C29U A57G U72C U80C, the self-cleavage was 0.16.
Variant A18G G30A G52A U66C has a self-cleavage of 0.2.
A18G C29U U49C A57U U72A gave a self-cleavage of 0.16.
With A18G U26A A28G G46A A56G U80A the self-cleavage was 0.08.
A18G U25C U49C U72A U78G gave a self-cleavage of 0.04.
A18G U26A U48C showed a self-cleavage of 0.3.
A18G G33A U66A gave a self-cleavage of 0.03.
A18G C68A U69C U80G gave a self-cleavage of 0.54.
Variant A18G U31A U58A has a self-cleavage of 0.1.
A18G C23U C44G U51C gave a self-cleavage of 0.19.
Variant A18G U31A C37A U54C U60G has a self-cleavage of 0.08.
A18G U25C U43C U58C U74A A75C gave a self-cleavage of 0.26.
In the case of A18G A65G U69C, the self-cleavage is reported as 0.44.
In the case of A18G U25C U72A A75G, the self-cleavage is reported as 0.17.
A18G U25A U41A showed a self-cleavage of 0.13.
Variant A18G U25C A47G C81G has a self-cleavage of 0.27.
With A18G C29U U72A A75G the self-cleavage was 0.3.
With A18G G24A A28G U31A U66C the self-cleavage was 0.21.
For A18G C38A C62U U67G U69C, the self-cleavage was 0.09.
Variant A18G U31C A56G has a self-cleavage of 0.35.
A18G U31A U48C U49C gave a self-cleavage of 0.09.
With A18G G24C C27G the self-cleavage was 0.3.
With A18G C50U U54G A75G the self-cleavage was 0.23.
With A18G U25A C32U U41A C50U the self-cleavage was 0.24.
Work on A18G U26C U58C U69C yielded a self-cleavage of 0.22.
Variant A18G U25C A28G A35G U67A has a self-cleavage of 0.03.
Variant A18G G22A C27A U60A has a self-cleavage of 0.06.
A18G C32U U54A U69C gave a self-cleavage of 0.08.
Work on A18G U26A A45G A64U A75G U78C yielded a self-cleavage of 0.1.
Work on A18G U31C A47G U49G U66C U72C U78C yielded a self-cleavage of 0.23.
With A18G A57G C62A U66C U69A U72C the self-cleavage was 0.17.
With A18G U26C C34U U48C U51A A64U the self-cleavage was 0.06.
With A18G G52U A64G U67A U80A the self-cleavage was 0.09.
For A18G C32U G36U U78C, the self-cleavage was 0.06.
For A18G G24A A56U A65G, the self-cleavage was 0.32.
In the case of A18G C27A C34A A35G U48C, the self-cleavage is reported as 0.04.
In the case of A18G G22A G36A A77G, the self-cleavage is reported as 0.14.
A18G U31C A35U gave a self-cleavage of 0.19.
With A18G A65G U66C U76C the self-cleavage was 0.23.
Variant A18G U25A A64G U74C has a self-cleavage of 0.31.
A18G U26A A56G showed a self-cleavage of 0.5.
A18G G24U G36U U51C U66C gave a self-cleavage of 0.28.
A18G U26A U41C U48C A64U U67A gave a self-cleavage of 0.12.
For A18G C29A A56U A57G U69C U74C U80A, the self-cleavage was 0.18.
For A18G C39U U41C U58C, the self-cleavage was 0.1.
With A18G C29U U48G the self-cleavage was 0.21.
Variant A18G A57U A77U has a self-cleavage of 0.31.
In the case of A18G A56G A64G, the self-cleavage is reported as 0.1.
In the case of A18G C23A A56G U58A U74A U80C, the self-cleavage is reported as 0.05.
With A18G U26A U43C A75G the self-cleavage was 0.13.
Variant A18G U26A U43A U58C has a self-cleavage of 0.18.
A18G U31A U48C U51A A64G showed a self-cleavage of 0.11.
With A18G A57G U78C the self-cleavage was 0.43.
Variant A18G U31C A35C A65G A77C has a self-cleavage of 0.07.
With A18G U25C A64U A75G A77G the self-cleavage was 0.1.
A18G U31A C38U gave a self-cleavage of 0.43.
In the case of A18G A56G C79A, the self-cleavage is reported as 0.62.
Variant A18G G36A U60A has a self-cleavage of 0.03.
Work on A18G G30A U49A A75G yielded a self-cleavage of 0.17.
In the case of A18G C29U U31C U41A, the self-cleavage is reported as 0.05.
Variant A18G G24A A47G A56U A64G has a self-cleavage of 0.22.
In the case of A18G U25A C29U C50U U54A, the self-cleavage is reported as 0.13.
Variant A18G C32A U78C has a self-cleavage of 0.08.
With A18G A64U U78C the self-cleavage was 0.27.
Work on A18G C27U C39U A47G U69C U76A yielded a self-cleavage of 0.38.
A18G G19A U25A gave a self-cleavage of 0.09.
In the case of A18G C39A C50G, the self-cleavage is reported as 0.18.
With A18G G19U U41C U51A U80C the self-cleavage was 0.22.
With A18G C23U C50G U60C A77U the self-cleavage was 0.05.
Variant A18G G55A G63A has a self-cleavage of 0.33.
A18G U25A U49C U67C U78C gave a self-cleavage of 0.08.
In the case of A18G U31A U43A C71G, the self-cleavage is reported as 0.25.
In the case of A18G G30A U43A, the self-cleavage is reported as 0.11.
A18G G19A G61U showed a self-cleavage of 0.14.
Variant A18G U25C A35G U43C has a self-cleavage of 0.3.
For A18G C32A C38U, the self-cleavage was 0.41.
For A18G C32U G42A, the self-cleavage was 0.38.
A18G U31A U60C A65G A77C U78C showed a self-cleavage of 0.11.
With A18G C37U C39A U49A A57G U69A U72C the self-cleavage was 0.05.
A18G U25C U31A U43C U51C G61A A75U gave a self-cleavage of 0.04.
A18G C27U U31A U43C G46A G61C C71A showed a self-cleavage of 0.1.
A18G U26A A45G U67G gave a self-cleavage of 0.13.
For A18G G55A U74A, the self-cleavage was 1.13.
A18G U26C A28U U54A gave a self-cleavage of 0.08.
For A18G U25C C38G U43C A45G U74A, the self-cleavage was 0.05.
Work on A18G U31A A35U U69A yielded a self-cleavage of 0.07.
In the case of A18G G24A U51A U80A, the self-cleavage is reported as 0.04.
For A18G C34G U43C U60C U74C A75U, the self-cleavage was 0.04.
Variant A18G U25C U43C U67A has a self-cleavage of 0.05.
For A18G G24C U48C U80A, the self-cleavage was 0.07.
A18G C38G U74C gave a self-cleavage of 0.57.
A18G U31A G53A U66A C68G U78C gave a self-cleavage of 0.08.
With A18G U26A A64G A65U the self-cleavage was 0.23.
For A18G U25C U31C A45G U54A U66C, the self-cleavage was 0.09.
Variant A18G U31C A35U U58C G61A U67C has a self-cleavage of 0.08.
Variant A18G U31C A45G U51C A64G U67C has a self-cleavage of 0.21.
In the case of A18G C32U U43C A45G U48C U54G A64G, the self-cleavage is reported as 0.05.
A18G C29A U31C U51A A56G U80C showed a self-cleavage of 0.09.
With A18G G24A U69C U72A the self-cleavage was 0.12.
In the case of A18G C29U A65G U66C U78C, the self-cleavage is reported as 0.12.
For A18G U25C U26C U41A U43A U49A, the self-cleavage was 0.21.
